Sequences and labels used below:
B1: GPR68, Q15743 (parent)
chain: MGNITADNSSMSCTIDHTIHQTLAPVVYVTVLVVGFPANCLSLYFGYLQIKARNELGVYLCNLTVADLFYICSLPFWLQYVLQHDNWSHGDLSCQVCGILLYENIYISVGFLCCISVDRYLAVAHPFRFHQFRTLKAAVGVSVVIWAKELLTSIYFLMHEEVIEDENQHRVCFEHYPIQAWQRAINYYRFLVGFLFPICLLLASYQGILRAVRRSHGTQKSRKDQIQRLVLSTVVIFLACFLPYHVLLLVRSVWEASCDFAKGVFNAYHFSLLLTSFNCVADPVLYCFVSETTHRDLARLRGACLAFLTCSRTGRAREAYPLGAPEASGKSGAQGEEPELLTKLHPAFQTPNSPGSGGFPTGRLA

In data set [1] the parent is B1. The data set is described as follows: cAMP reporter score (Enrich2 score, wild type = 0); higher = more signal; HEK293T, FACS bins.
The variants in data set [2] derive from B1. The data set is described as follows: surface expression score (Enrich2 score, wild type = 0); higher = more signal; HEK293T, FACS bins.

Scores whose standard error is large were omitted. Not listed are two conditions whose scores span a narrow range. In variant names, del marks residues removed and ins residues inserted between the two positions. For part of these data: How much ogerin was present is not stated here.

As to K148C, the cAMP reporter score in data set [1] (pH 5.5) stood at 0.161; in data set [1] (pH 6), 1.69; in data set [1] (pH 6, modulator: ogerin), 1.19; in data set [1] (pH 6.5, modulator: ogerin), 1.48. Further, the surface expression score in data set [2] worked out at 1.19.
With K148Y, the cAMP reporter score in data set [1] (pH 5.5) was -1.61; in data set [1] (pH 6) it was -1.28; in data set [1] (pH 6, modulator: ogerin) it was -0.792; in data set [1] (pH 6.5, modulator: ogerin), -0.882. The surface expression score in data set [2] is 1.73.
With K148Q, the cAMP reporter score in data set [1] (pH 5.5) was -1.28; in data set [1] (pH 6, modulator: ogerin) it was 0.634; in data set [1] (pH 6.5, modulator: ogerin), 0.612. Moreover, the surface expression score in data set [2] turned out to be 0.188.
Turning to K148P, the cAMP reporter score was -0.295 in data set [1] (pH 5.5); -1.19 in data set [1] (pH 6); -0.197 in data set [1] (pH 6, modulator: ogerin); -0.368 in data set [1] (pH 6.5, modulator: ogerin). Moreover, the surface expression score in data set [2] was -1.65.
Consider K148E, for which the cAMP reporter score in data set [1] (pH 5.5) stood at 0.464; in data set [1] (pH 6), 0.601; in data set [1] (pH 6, modulator: ogerin), 1.2; in data set [1] (pH 6.5, modulator: ogerin), 0.02. In addition, in data set [2], the surface expression score was -0.864.
With K148S, the cAMP reporter score in data set [1] (pH 5.5) worked out at 0.069; in data set [1] (pH 6), 1.19; in data set [1] (pH 6, modulator: ogerin) it was 1.14; in data set [1] (pH 6.5, modulator: ogerin), 1.52. For the same variant, the surface expression score in data set [2] is 0.56.
Regarding K148M, the cAMP reporter score in data set [1] (pH 5.5) was -0.879; in data set [1] (pH 6), 0.064; in data set [1] (pH 6, modulator: ogerin), -0.469; in data set [1] (pH 6.5, modulator: ogerin) it was 0.464. Further, in data set [2], the surface expression score is -0.394.
The corresponding values for K148G are -0.356, -0.301, 0.571, 1.75 and 0.922.
On to K148R, for which the cAMP reporter score in data set [1] (pH 5.5) was -0.295; in data set [1] (pH 6), -0.984; in data set [1] (pH 6, modulator: ogerin), -1.33; in data set [1] (pH 6.5, modulator: ogerin), -0.913. The surface expression score in data set [2] was -2.82.
Take K148N: the cAMP reporter score stood at 1.12 in data set [1] (pH 5.5); 0.61 in data set [1] (pH 6); 0.836 in data set [1] (pH 6, modulator: ogerin); 0.051 in data set [1] (pH 6.5, modulator: ogerin). For the same variant, in data set [2], the surface expression score stood at 1.31.
Turning to K148W, the cAMP reporter score in data set [1] (pH 5.5) was -1.61; in data set [1] (pH 6), -0.93; in data set [1] (pH 6, modulator: ogerin) it was -1.18; in data set [1] (pH 6.5, modulator: ogerin), -0.746. In addition, the surface expression score in data set [2] is 0.583.
Turning to K148I, the cAMP reporter score in data set [1] (pH 5.5) was found to be 0.516; in data set [1] (pH 6, modulator: ogerin) it was 1.1; in data set [1] (pH 6.5, modulator: ogerin), 2.8. Further, the surface expression score in data set [2] came out at 1.4.
Take K148F: the cAMP reporter score in data set [1] (pH 5.5) was 0.508; in data set [1] (pH 6), -1.1; in data set [1] (pH 6, modulator: ogerin), 0.443; in data set [1] (pH 6.5, modulator: ogerin), 0.034. In data set [2], the surface expression score is 1.5.
On to K148T, for which the cAMP reporter score was 2.2 in data set [1] (pH 5.5); 2.58 in data set [1] (pH 6); 1.93 in data set [1] (pH 6, modulator: ogerin); 5.15 in data set [1] (pH 6.5, modulator: ogerin). Also, in data set [2], the surface expression score came out at 3.47.
Regarding K148H, the cAMP reporter score was 1.08 in data set [1] (pH 5.5); 1.63 in data set [1] (pH 6); 0.935 in data set [1] (pH 6, modulator: ogerin); -0.152 in data set [1] (pH 6.5, modulator: ogerin). Besides, in data set [2], the surface expression score stood at 2.59.
As to K148D, the cAMP reporter score is 0.171 in data set [1] (pH 5.5); -0.495 in data set [1] (pH 6); 0.048 in data set [1] (pH 6, modulator: ogerin); 0.396 in data set [1] (pH 6.5, modulator: ogerin).
As to K148V, the cAMP reporter score in data set [1] (pH 5.5) came out at 0.815; in data set [1] (pH 6) it was 1.01; in data set [1] (pH 6, modulator: ogerin), 1.26; in data set [1] (pH 6.5, modulator: ogerin) it was 1.63. Also, the surface expression score in data set [2] stood at 1.63.
On to K148L, for which the cAMP reporter score in data set [1] (pH 5.5) was 0.44; in data set [1] (pH 6), -0.286; in data set [1] (pH 6, modulator: ogerin) it was 0.935; in data set [1] (pH 6.5, modulator: ogerin), 1.52. Also, the surface expression score in data set [2] stood at 1.35.
On to K148A, for which the cAMP reporter score worked out at 1.14 in data set [1] (pH 5.5); 1.51 in data set [1] (pH 6); 1.45 in data set [1] (pH 6, modulator: ogerin); 3.02 in data set [1] (pH 6.5, modulator: ogerin). In data set [2], the surface expression score is 2.01.
The corresponding values for Y155D are 0.87, -0.635, -1.05, -0.59 and -1.7.
For Y155C, the cAMP reporter score is -0.221 in data set [1] (pH 5.5); -0.145 in data set [1] (pH 6); -0.788 in data set [1] (pH 6, modulator: ogerin); -1.1 in data set [1] (pH 6.5, modulator: ogerin). Further, the surface expression score in data set [2] was -0.809.
Consider V139_G140del, for which the cAMP reporter score was -1.4 in data set [1] (pH 5.5); -1.36 in data set [1] (pH 6); -1.48 in data set [1] (pH 6, modulator: ogerin); -1.12 in data set [1] (pH 6.5, modulator: ogerin). In data set [2], the surface expression score is -2.79.
In the case of A138D, the cAMP reporter score in data set [1] (pH 5.5) is -1.07; in data set [1] (pH 6), -1.18; in data set [1] (pH 6, modulator: ogerin), -1.56; in data set [1] (pH 6.5, modulator: ogerin), -1.26. The surface expression score in data set [2] is -2.03.
In the case of A138W, the cAMP reporter score is -2.5 in data set [1] (pH 5.5); -1.18 in data set [1] (pH 6); -2.14 in data set [1] (pH 6, modulator: ogerin); -0.595 in data set [1] (pH 6.5, modulator: ogerin). In addition, in data set [2], the surface expression score is -2.45.
For the variant A138V, the cAMP reporter score in data set [1] (pH 5.5) was -1.3; in data set [1] (pH 6.5, modulator: ogerin), -0.51. The surface expression score in data set [2] is -1.24.
As to A138G, the cAMP reporter score is -1.2 in data set [1] (pH 5.5); -0.947 in data set [1] (pH 6); -1.35 in data set [1] (pH 6, modulator: ogerin); -1.11 in data set [1] (pH 6.5, modulator: ogerin). In addition, the surface expression score in data set [2] was -2.1.
A138N: the cAMP reporter score in data set [1] (pH 5.5) was -2.06; in data set [1] (pH 6, modulator: ogerin) it was -1.37; in data set [1] (pH 6.5, modulator: ogerin), -1.78. Also, the surface expression score in data set [2] was -2.12.
Consider A138S, for which the cAMP reporter score in data set [1] (pH 5.5) is -0.355; in data set [1] (pH 6), 0.027; in data set [1] (pH 6, modulator: ogerin) it was -0.781; in data set [1] (pH 6.5, modulator: ogerin), -0.803. For the same variant, in data set [2], the surface expression score was -1.19.
A138R: the cAMP reporter score in data set [1] (pH 5.5) was -0.418; in data set [1] (pH 6) it was -0.822; in data set [1] (pH 6.5, modulator: ogerin) it was -0.432.
As to A138C, the cAMP reporter score is -1.43 in data set [1] (pH 5.5); -1.18 in data set [1] (pH 6); -0.671 in data set [1] (pH 6, modulator: ogerin); -1.36 in data set [1] (pH 6.5, modulator: ogerin). For the same variant, the surface expression score in data set [2] was -2.53.
As for A138I, the cAMP reporter score was -0.676 in data set [1] (pH 5.5) and -1.3 in data set [1] (pH 6). Also, in data set [2], the surface expression score was -1.78.
Take A138F: the cAMP reporter score in data set [1] (pH 5.5) is -0.776; in data set [1] (pH 6) it was -0.392; in data set [1] (pH 6, modulator: ogerin) it was -0.642; in data set [1] (pH 6.5, modulator: ogerin), -1.52. For the same variant, the surface expression score in data set [2] was -2.55.
